# The full ranking holds about 4,500 sequences; the median of “median log2 fold change of GCK-ALFA target abundance (FLAG IP / Myc IP barcode read proportion)” is about 0.078, and the lowest 2% start at about -0.6. Some of the results follow.
# B1: GBRAP_160_4524 (protein)
# chain: SEHLEKKKELLDEAAEEAIRLIKGESAEQRAVIVDGEFGALAMEFASDPNSTDEEVDVVLDARDELVATILANPDLTDEEVAALIEEARERIKEELEKLH
# B2: GBRAP_160_4851 (protein)
# chain: SEKLKKMLELIEEAEKFIEELVDEVDIETLAAFFRAEVGEVIYYMETELGASDELLDRIDEIADETVAELLANPDLTPEERKALIRKALEEMREAVKELS
# B3: GBRAP_160_4559 (protein)
# chain: EEERKKGIEEIKKILEEAIELMKELSPEEALTLARGAFGEVLMLLFSSPVFTDEEIDKAGEIADEAEKALEAALDASREEVVELAKKYAEKLIKELEKLA
# B4: GBRAP_128_3514 (protein)
# chain: SMEEAVARVDELMAAVGAADAEEARRLTREIVELIAANDDETAEAMADRAIELLPKLSQEKLEIVADTLREQRPSLDPYKANLVADIQVEALNLAVEQEE
# B5: GBRAP_128_3164 (protein)
# chain: SVEKVKEETEKLMEEIINSSLEEAKKLVEELFELLGKVNDEEREAAVEVIEKNLPKLSKEKLDILADVFREKRPELDPYGQELVNGIIVEALNEAEELEE
# B6: GBRAP_160_4424 (protein)
# chain: GSLVERVDRIMEEGRELVVELVEEGRREEALAAARVTAGEVLLEVDSDESVSEEAREKVDAILDALIAELEANRDASPEEVRAMLERARAEVLAVLEEYT
# B7: GBRAP_78_6634 (protein)
# chain: EIEELLEKAGEKLAEAAKLALSLPLDLRAEVLDHLSDALVDIEEAEENGKLEEELKEAIESTEKAIKLLEENASEKTEPILKLVKEALKLLKKALELVKK
# B8: GBRAP_14_3798 (protein)
# chain: MEEREKEIEEIAEETKEEIEEIMEEADEEVREEVLELVEEARKTIIEKKLNEDEAAKLNDETVAKIAEILEEADPEVRAQVLATVAIHGGEAILEIAELE
# B9: GBRAP_11_2755 (protein)
# chain: KKEKLKEMSKLAEELAKLVEKLLKEGVDNEELIKEAEKTLKELSELTKKYGDEDDKKLVKIAEELFKKALEDKENREEYFKELLAVARVLAGNYLLDYEE
# B10: GBRAP_160_4765 (protein)
# chain: SEELEKLKEEIEEIFDEHIELLKEVPREEAVTVVRGAMGEVLMLAMSSEAVSDELEEEIGKIMDEAEERAEANKDAPVEVHIEILEEAREEILSLLEKEI
# B11: GBRAP_128_3280 (protein)
# chain: PNPEVVARARDFVDRIAASDPEEARRLAEEFAAWLGSISTEEAAQAVEVVEERLHLLSVEHLEILADVLEEQRPLFDPEKANLVADLQVAALNEAEEKEE
# B12: GBRAP_128_3281 (protein)
# chain: ANPEIVKKAKEFVEKIKNSNPEEARKLAEEFAEWLGSISLEEAEQAVEVVEERLHELSVEHLEILADVLREKRDEYDEGKANLVADLEVAALNEAVEKEE
# B13: GBRAP_125_3067 (protein)
# chain: GEEEDLEDLAYIAKALGLSEEDVKELVELARKSSIKNTLYALFLAEGYEEVAELVEKITEEQAKEVLRRVKEELEKNPELSKEEVVELVKEELEKAIKEQ
# B14: GBRAP_139_3761 (protein)
# chain: DEREEKVKKAAELTKKLVAGDEEAAKELAELAKSVDDETLKAIADAIRETLKGQDPDTIEKARDLLEKELKEVGASEETILLIEGAIDAAEAEAIAAELA
# B15: GBRAP_160_4303 (protein)
# chain: SEEFEELMKEIKEIAEEALKMIEGQTKEEQKTIVKVALGEIILLADESEAISDELEEEIDKIADEAEEYLDANPDLTEEEIKELLKEAVEKILELIKERS
# B16: GBRAP_160_4751 (protein)
# chain: SEALKKLKEEVKKIFEEGIEMLKEVPAEEAPTVLRGVMGEVLMEVFSSEAASDELEEEVGEVVDKAEAEAAANANAPVEYHIELLEKAKKEILEIIEKEI
# B17: GBRAP_184_5341 (protein)
# chain: SILEAHIEGKSLEEIVAEAGKYLKEAAAKGAALLISIDASGFSDEELVKLVEEIGKLAKEYGVKDLTLGLDKEVDEETADKLLEVADKYGIRLTVALKDE
# B18: GBRAP_160_4850 (protein)
# chain: DEKLKKVEEELNKARDFVLSLVPEVTVEQLAKFYETEISSVLLELYEKGYINEEAEDAGLELAKEARAALLAAADATPEEIRALIEKSTAEMIEKIKELL
# B19: GBRAP_83_6894 (protein)
# chain: MEEITVVANSDNIEEAFKIAIDLSKEEGYKVSIEAIITPESVEKLKKSFEELAKEKIDVELTIYAEGMTEEEAEKLKKELEEIAKKYGVNVKIEVILVEP
# B20: GBRAP_160_4641 (protein)
# chain: SPSLEELKKIVEEGTKIVLEYIDEGNLENAIAALRVMVGEVVMEMVEDPRFSDEDVDEIAELGDKAVKELEAAKGASKEELKKLVEKAAEALKKKLEEFY
# B21: GBRAP_128_3342 (protein)
# chain: IDEERLEEVRELAEAMIEADDEEAEELARELMELLVTLSLEEVEEAAKIIRELLPKLSAEHLEILADELREYRPLFSPEKALIVNDLEVEALNEAVEKEE
# B22: GBRAP_11_2849 (protein)
# chain: KKELLKKIAEKAEELIKLLEELKEKGVDDEELLKKVREKMEELKKLVEKAKDESLIKIAEIAKENIEKIETDPSNKEEYVNNAIAAVRTLKGQVLLEIEE
# B23: GBRAP_184_5257 (protein)
# chain: KTLEETIEVSNVEELKKKLDEIGKKALEEKADVVILLEVEKLTKEMIDALFEKIKEMKAKGYKGKVTIGITADLTEEMIDYVLEKADEAGVNVALAIPEE
# B24: GBRAP_26_5466 (protein)
# chain: MEEAFKKAREKFDEVAAKLPNPTAAAALRAEADTELEELEERIEAGEDIEKAVKEAKEEFLKEAREILTDAGLPEELIEATLKEFEEIFKELEKELKKEQ
# B25: GBRAP_78_6648 (protein)
# chain: EVEELIDKALEHIDKASRLAQKLPEEERNELLAELTEAASYLLEAEENGFDLELLEEALKELKEALKLVEKLDHPEAPKIKEELEKAIKLVEEAIKLVKK
# B26: GBRAP_9_7175 (protein)
# chain: LKEAAKKAIEGLKEAKEFALEVVPEEKKEEINAAFDELIETVKKMQADDSVTKEEFRETLEKGFDKIIELAKKNLDPEIAAIVETELLTIKAEVDELLDE
# B27: GBRAP_52_5867 (protein)
# chain: MRERLRAALEEALALVKAGDEEGARALARELVASISEEEAEVLIEVAAELFATLAPEDLDAAWRLMEILAEAMEEAGFPEELVTLFEGEVGSAIAKREAA
# B28: GBRAP_128_3391 (protein)
# chain: SEEEKVEKAKELIDKIIEADEETARELAKELMELFGTLSKENREKVAEYFHEKLPELTAEKLDVVADVFREQRPKLDPYGQELVADMEVEALNEAEEKEE
# B29: GBRAP_52_6252 (protein)
# chain: MRARLRADAREILELVKEGREEEARRLAREIAETYNEEELRLFIDEFAALAAEAPKEDIDDVWRAAEILAEALEEAGWEEVLVDDALARTAAALVKVEAK
# Biological target: GABARAP, O95166
# Sequence (O95166 whole entry, the tested form may be a part): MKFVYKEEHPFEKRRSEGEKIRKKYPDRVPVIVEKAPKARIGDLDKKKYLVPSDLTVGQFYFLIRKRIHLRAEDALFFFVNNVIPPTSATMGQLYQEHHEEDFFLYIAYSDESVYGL
# Assay: median log2 fold change of GCK-ALFA target abundance (FLAG IP / Myc IP barcode read proportion) (log2 ratio); each designed protein is fused to an ALFA-tag nanobody in HEK293 cells to bring the named protein to FLAG-tagged glucokinase (GCK); Myc marks an untargeted standard; higher = target protein stabilised (more abundant)
# Settings: target protein: 3xFLAG-MCP-GCK-ALFA reporter; HEK293 landing pad (RPLP)
# How it was run: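 The readout is target abundance, the per-binder median log2 ratio of FLAG to Myc barcode read proportions. It came from HEK293 landing-pad cells carrying a recombined ALFA-nanobody-fused binder library, induced with 2 μg mL^−1 doxycycline and transfected with a plasmid for a FLAG-tagged target and a Myc-tagged standard. After 48 h, lysates were immunoprecipitated with anti-FLAG and anti-Myc, and circular RNA barcodes were reverse transcribed, amplified and sequenced. Each barcode needed a proportion of at least 10^−7 in both replicates and each binder at least 3 barcodes per replicate, a pseudocount of 10^−6 was added, and the replicates were pooled.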
row,Binder,median log2 fold change
1,B1,-0.108
2,B2,-0.387
3,B3,0.0897
4,B4,0.176
5,B5,0.388
6,B6,0.208
7,B7,0.149
8,B8,0.252
9,B9,0.189
10,B10,0.134
11,B11,0.21
12,B12,0.0787
13,B13,0.04
14,B14,0.298
15,B15,-0.126
16,B16,-0.117
17,B17,0.25
18,B18,0.0425
19,B19,0.16
20,B20,0.217
21,B21,-0.176
22,B22,0.662
23,B23,0.0132
24,B24,0.217
25,B25,0.0863
26,B26,0.286
27,B27,-0.0902
28,B28,0.184
29,B29,-0.272
